# Test results: PMC5700166
# This is a selection; strong and weak results do not stand in their true shares. The list includes weakly bound sequences.
# Target: T1, GST-Dm-Relish (UniProt Q94527)
# T1 sequence: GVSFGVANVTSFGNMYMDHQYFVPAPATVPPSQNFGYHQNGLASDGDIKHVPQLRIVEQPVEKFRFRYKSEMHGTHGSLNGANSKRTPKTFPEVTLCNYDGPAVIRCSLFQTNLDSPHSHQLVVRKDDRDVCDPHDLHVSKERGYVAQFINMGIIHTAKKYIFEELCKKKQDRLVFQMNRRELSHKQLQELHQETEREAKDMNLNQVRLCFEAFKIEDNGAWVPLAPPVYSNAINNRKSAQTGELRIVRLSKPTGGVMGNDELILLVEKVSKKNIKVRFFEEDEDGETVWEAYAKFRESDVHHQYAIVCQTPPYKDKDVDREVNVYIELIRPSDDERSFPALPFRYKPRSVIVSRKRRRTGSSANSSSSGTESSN
# Test: protein-binding microarray (PBM)
# Details: PBM: ~300 nM protein, 6 mM HEPES pH 7.8, 80 mM KCl, 0.5 mM EDTA, 0.5 mM EGTA, 6% glycerol, 35 ng/ul poly-dIdC, 1% milk, 1 h, room temperature; Ap Aiptasia and Nv Nematostella (sea anemones) / Co Capsaspora / Aq Amphimedon (sponge) / Dm Drosophila / Hu human; RHD is the Rel homology domain; high values mean tight binding; most listed sequences are background and not binding sites; double strand, one strand shown
row,Sequence,binding signal
1,CCGATTAACATCAGAGAATTCCCTGATGTTAATCGGGTCTTGATTCGCTTGACGCTGCTG,4.51 z-score
2,CCGATTAACATCACGGGATTCCCTGATGTTAATCGGGTCTTGATTCGCTTGACGCTGCTG,10.2 z-score
3,CCGATTAACATCAACTCTCCCCCTGATGTTAATCGGGTCTTGATTCGCTTGACGCTGCTG,2.14 z-score
4,CCGATTAACATCAGGGGGTGAAATGATGTTAATCGGGTCTTGATTCGCTTGACGCTGCTG,3.46 z-score
5,CCGATTAACATCATTTCCCTTGATGATGTTAATCGGGTCTTGATTCGCTTGACGCTGCTG,0.0348 z-score
6,CCGATTAACATCAGGGAATGACCTGATGTTAATCGGGTCTTGATTCGCTTGACGCTGCTG,3.4 z-score
7,CCGATTAACATCAGGAACGTCCCTGATGTTAATCGGGTCTTGATTCGCTTGACGCTGCTG,0.919 z-score
8,CCGATTAACATCAAGGGGGGGAATGATGTTAATCGGGTCTTGATTCGCTTGACGCTGCTG,4.96 z-score
9,CCGATTAACATCAGGGAAATAACTGATGTTAATCGGGTCTTGATTCGCTTGACGCTGCTG,4.51 z-score
10,CCGATTAACATCAGAGTGGGAAATGATGTTAATCGGGTCTTGATTCGCTTGACGCTGCTG,0.0591 z-score
